The other results are listed elsewhere or left out. At the low end of the ranking, values are background and their order means little.
system: T1, GST-NbGlk1(82-244); assay: protein-binding microarray; conditions: NbGlk1 is a Golden2-like transcription factor of Nicotiana benthamiana; high values mean tight binding; most listed sequences are background and not binding sites; double strand, one strand shown;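 also: rank-based score ranging −0.5 to +0.5 with E above 0.45 taken as significant binding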
T1 sequence: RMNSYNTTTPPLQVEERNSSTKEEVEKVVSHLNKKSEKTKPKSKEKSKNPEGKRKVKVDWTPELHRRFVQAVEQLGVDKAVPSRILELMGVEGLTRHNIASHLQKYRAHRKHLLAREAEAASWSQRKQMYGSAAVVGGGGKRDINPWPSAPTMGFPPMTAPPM

Sequence	binding signal [E-score]
AACTTAGT	-0.145
AGGGTTCC	-0.264
AGGATGTG	0.033
ACTATATA	0.125
ATAAGGGC	-0.209
AGTTCCGA	-0.0741
ATGCAGCC	-0.246
AAACCCGT	-0.105
ACTCTTCC	-0.263
ACTTATGC	-0.107
ACTCCGAA	-0.034
ATAACGTC	0.0192
AGGGCACG	-0.223
AAGTAAAA	0.21
AGAAGAGC	-0.0676
ACTGTAGC	0.0356
AGAGGTTC	-0.2
AAGAGGCA	-0.126
ACAACCGA	-0.0668
ATCTGAGA	0.327
ATCATTTA	0.151
CAATAATA	0.157
ATAAGTAA	0.18
AAAATATG	0.218
CAACGGAA	0.0739

Sequence	binding signal [E-score]
AATTAAGA	0.187
ACGAACAG	-0.21
ATGCTGTA	0.0608
AATGCCTC	-0.204
ATAACGCC	-0.127
AAGTTACG	-0.00986
AACGAGGG	-0.236
AGCCTGAC	-0.16
AGCACTTG	-0.238
ATAACAAA	0.109
ACTAAGTC	-0.0822
ATGACCAC	-0.236
ACCACCGA	-0.0886
ACGGACCG	-0.172
ATTCGGTG	0.141
ACCGCCTG	-0.218
AAGAGCCG	-0.16
AAGCGACG	-0.0497
ACACCGCA	-0.0104
ACCAGGTG	-0.249
ATCCCAAC	0.175
AGGAATTC	0.0745
AGAACTTC	-0.134
AACATATC	0.279
AGGACCCT	-0.359

Sequence	binding signal [E-score]
CAACACTG	0.00603
ATGATGAA	0.0329
AGATAACC	0.0595
AGCGTGAA	-0.147
AGCTCAAC	-0.0128
AACCGTTG	-0.117
AATCTGAA	0.444
ACCTAAGC	-0.204
ACTAAATA	0.0579
AGGCTCAT	-0.23
AAGCCATC	-0.0651
AGTACTTC	-0.0113
ATTGAATC	0.106
AACACCTG	-0.0685
AAATATGT	0.259
ACATTGAT	0.0383
ATGTAAAC	0.00398
AACGGCTC	-0.0966
CAATCGAA	0.202
ATTGGCCA	-0.144
ACTGCCCA	-0.22
AAAACACA	0.0683
AACAATCT	0.244
ACCGTACC	-0.0621
AGCGACCA	-0.21

Sequence	binding signal [E-score]
ATAGGTAG	-0.0826
ATTTGATG	0.116
AAACGAGG	-0.0779
ATCAATGC	0.0156
AAGAAGGG	-0.135
AAGATTTA	0.333
AGATCACA	0.185
ACGCAGTA	-0.0909
AAGCCTCA	-0.166
ATCACATA	0.212
ATCTCGGA	0.36
ATTGAGGG	-0.0357
AAGCTTAA	-0.0444
AGCGTTAG	-0.0918
ACTTTGGA	0.00547
ACGCCCGC	-0.279
ATCCAGGC	0.093
AAGGTCCG	-0.208
ACTGGCAT	-0.0937
AAAGGTAT	0.0527
ATTGGGCC	-0.325
ACAACGCA	0.000559
AAGATTAG	0.136
ACTCCCTG	-0.251
AAGCCGAT	0.0831

Sequence	binding signal [E-score]
AACTTTCA	-0.0373
CAATGACA	-0.0905
AAGGACCA	-0.264
ATTTCTAA	0.2
AAGACGGG	-0.0475
ACTGCGGC	-0.115
ACAGTCGC	-0.226
CAATTTTC	0.101
ACACAGGT	-0.179
AGGTTCGC	-0.197
AGTAGAAG	-0.043
AGAGTTCG	-0.199
ACTTGCAG	-0.0836
ACAACTAA	-0.0213
ACCCCGTA	-0.0728
AAGAAAAG	0.00831
AACGGTAT	-0.0133
AATTCGAT	0.182
AGGCAAGG	-0.216
ATAATCCG	0.337
ATGGGCAG	-0.26
AGCCAGGC	-0.24
CACTTATA	0.0728
AGAAAAAT	0.252
AACCAGAG	-0.107

Sequence	binding signal [E-score]
CACTGATA	0.208
AAGTTCGT	-0.0191
ACCGACTC	-0.203
CAGACTCA	-0.149
ACATTCCA	-0.0714
CAAAGGTG	-0.155
AGTGCAAC	-0.102
ACAATAAT	0.15
ACGACAAT	0.149
AGGCCTCA	-0.235
AGCCACAC	-0.156
AGTGCGCC	-0.138
AGTCTAGC	-0.163
CACCCACC	-0.0817
ACAGGCAC	-0.156
CAAACTAA	0.139
ATGAGCCA	-0.129
ACTCGAGC	-0.18
ATAGACCC	-0.248
ATATTGAG	0.214
AGGTGTTG	0.0307
CACGTTTA	-0.0185
ATCGGTTA	0.137
CAGCCAGA	-0.059
AGTACACC	-0.0619

Sequence	binding signal [E-score]
ACCTATCT	0.0132
ACAACTCA	-0.0703
AGTCCTCC	-0.342
ATAACACG	0.136
AGGGACCG	-0.245
ATTAATGC	-0.000351
ATTCGCAG	0.292
ATTCGTCC	-0.0277
ACTGGTGA	-0.0798
ACATGCCA	-0.158
AAACTCTG	-0.0422
ACATTGGC	-0.145
AAGACATC	-0.031
AGGCCCAG	-0.282
AGGCAATG	-0.0934
CACCCAGC	-0.212
ACGCCTTG	-0.173
CACTACCC	-0.229
ACTGTCCG	-0.0599
ACAGTGAG	-0.126
CAATCACC	0.132
CAGAAGCC	-0.306
ACAAGGGC	-0.212
AACATTCG	-0.0753
ATCCTCTA	0.342

Sequence	binding signal [E-score]
AGGGGGCA	-0.128
AAGCACGC	0.0282
ATCAGAAT	0.275
ACTATACC	-0.0514
AAAACACC	-0.0449
AGCATACG	-0.0933
ATACACAA	0.175
ACTTTTAC	0.0084
ACTGATAA	0.103
ATTAATAA	0.0603
AACGCTCA	-0.0431
ATGACGTG	0.0205
ATATGACC	0.00878
AGGGTTGG	-0.19
AATCCATG	0.381
ACTTATGG	-0.101
CACAGACG	-0.122
ACGGCTCG	-0.172
AGGAACCG	-0.245
AATAGACG	0.0434
CAGACTAC	-0.173
AGGGCAAA	-0.0141
AGTCCCTA	-0.0768
AAGAAGAG	-0.0793
CACGATCG	0.23

Sequence	binding signal [E-score]
ATTTGCCC	0.164
ATGGAAAC	-0.0756
ACCTCACC	-0.132
AGCCTAGC	-0.277
AGGCAGGA	-0.0368
AAGCCGGC	-0.314
AAGACTTC	-0.0102
ATTTGTAC	0.228
ACACCTGA	0.0673
AATGACAG	-0.145
AGACTCGC	-0.16
AAACAATC	0.131
AACCTGGT	-0.211
AGTACCCA	-0.0871
AATTGGTC	-0.0142
AACACACC	-0.0581
ATCTCAAC	0.329
AAATACGG	0.207
CACACCAG	-0.0346
AACACAAC	-0.105
AAGGATGA	-0.0566
ATTGGACA	-0.1
AATAGGTG	-0.043
ATCCCCTG	0.0935
ATACTGTA	0.274

Sequence	binding signal [E-score]
CAGAATGC	-0.097
AGGCACAC	-0.167
AGAGCATG	-0.229
ATATTGAT	0.248
AGATCTTA	0.347
ACTTTCGC	-0.0741
ATATGATG	0.184
AAGACTGT	-0.0211
ATTGGATC	0.158
AAAACACG	0.0341
ACCACAGG	0.0657
ATCGCACA	0.256
ACCCTTCC	-0.172
AGTGCTCA	-0.0993
AGCGCCGA	-0.0809
ATCGACGG	-0.0567
CAGAGCCA	-0.222
CACATCTA	0.0487
AGCAGTGC	-0.31
AGCGTGTC	-0.261
AGTCGTAT	0.118
AACTCTTC	-0.205
CACCCTCC	-0.112
AGTGCGAG	-0.106
AAAGGCAG	-0.0357

Sequence	binding signal [E-score]
AGTCTGAA	-0.0849
AGGAAACC	-0.111
AGTAGGAT	0.128
AAAGCCTC	-0.156
ATAGGCGC	-0.0234
ACAAGACC	-0.0852
AAAAGGAA	0.134
AATTAGCC	-0.107
AAGTAATA	0.122
ATGTCCCC	-0.228
AAGCGGAG	-0.131
AAAGCGTG	-0.0903
ACATACTG	0.0286
ACGCGCTG	-0.0674
ACTAATTG	0.0189
ATATTACG	0.331
CACAGTCG	-0.22
ACAGTCCC	-0.175
AGTAAGAG	0.00657
ACCTCTCC	-0.122
CAAGTTAA	-0.0639
AGTATTAG	0.0655
AGGGAGAT	0.281
CAGAATAG	-0.0163
CACGGGAC	-0.244

Sequence	binding signal [E-score]
AAACTGCA	-0.114
AGTACTGC	-0.0403
AAGGATAC	0.0958
ATACACGC	-0.0739
ATGCTATG	-0.0989
AGCAAAGG	-0.149
AAGGCACC	-0.29
ATAGATTC	0.437
ATTTGGGA	0.22
AAGAGGAG	-0.207
ATTATGTG	0.101
ACAGCTAT	0.0211
ATCATGAA	0.215
ATGGGTCG	-0.184
ACCATATA	0.118
ATCCAGGA	0.328
AGGTAGCA	-0.132
AAAGCTTC	-0.176
AGATGCCC	-0.111
AGGACTCC	-0.31
ACCCGAAA	0.00571
AAAGCCTA	-0.0333
AGTTAGGA	0.0497
ACACCGAT	0.145
ATCACTCA	0.176

Sequence	binding signal [E-score]
AGAGATGA	-0.0128
AAGCTATG	-0.161
ACCAGCTC	-0.249
CAACCACA	-0.101
ACCCCAAC	-0.108
AACCCTTC	-0.233
AAGGAGGG	-0.244
AGGAGTGC	-0.206
ATTCCAGA	0.111
CACAACAC	0.107
AGTTGGAT	0.269
ACAATGCG	-0.0864
AGATGTGG	-0.0812
ATATGGAC	0.0925
ACCGCACT	-0.0389
ACTTCCGG	-0.0985
AACAAGCA	-0.00652
CAAAGATG	-0.0188
ACCCGCTA	-0.144
ATTCAACC	0.0863
AGATAATA	0.116
ACCGGTAT	0.0515
AGTAACTC	-0.156
CAAGTAGA	0.106
ACTAAGAC	-0.0841

Sequence	binding signal [E-score]
AAATAAGC	0.0906
AACAAGGC	-0.115
AAATTATG	0.0815
ACGGAAGC	-0.208
AAAGCGTT	-0.0734
ATCAACTG	0.0489
AATAGAGG	0.0151
AGCCTCGC	-0.192
ACAATGGC	-0.0799
ACTACTGA	0.113
AAGCATCA	0.00693
ACTGCCGG	-0.147
ACCCCGGT	-0.266
ACTGTGCA	-0.148
CAGAAATC	0.405
CAATGCCC	-0.224
AGCAACAA	0.00402
AAGCTTAG	0.000607
AAACCGTT	-0.0172

— publication PMC5836133
